Data as given in PubChem BioAssay AID504332 (National Center for Advancing Translational Sciences (NCATS), 2011).
The whole screen tested about 350,000 compounds, of which about 31,000 (8.9%) were called active. Inconclusive results, whose numbers are uncertain, are shown with a selection of clear calls. Calls follow the shape of the dose curve; as a rule, active = well fitted inhibition curve with a large enough effect; inconclusive = small, poorly fitted or top-dose-only effect; inactive = no such curve, though single readings can be large or run the other way. Where the call is inconclusive, the potency comes from a doubtful curve fit.
% is scaled to controls: 0 for no effect and ±100 for the full control effect; potency is read from the fitted curve at half-maximal effect; tags tell the direction and shape of the fitted curve.
Also: nearly all actives have a fitted effect of over 75% in size.

Each molecule was assayed against Histone-lysine N-methyltransferase EHMT2 (Homo sapiens) (UniProt Q96KQ7) (assay: qHTS Assay for Inhibitors of Histone Lysine Methyltransferase G9a). Conditions: G9a H3K9 monomethylation, AlphaScreen, 2 h; activity, negative = inhibition: at 59 µM (top of the series) unless noted.
Sequence of UniProt Q96KQ7 (Q96KQ7 whole entry, looked up): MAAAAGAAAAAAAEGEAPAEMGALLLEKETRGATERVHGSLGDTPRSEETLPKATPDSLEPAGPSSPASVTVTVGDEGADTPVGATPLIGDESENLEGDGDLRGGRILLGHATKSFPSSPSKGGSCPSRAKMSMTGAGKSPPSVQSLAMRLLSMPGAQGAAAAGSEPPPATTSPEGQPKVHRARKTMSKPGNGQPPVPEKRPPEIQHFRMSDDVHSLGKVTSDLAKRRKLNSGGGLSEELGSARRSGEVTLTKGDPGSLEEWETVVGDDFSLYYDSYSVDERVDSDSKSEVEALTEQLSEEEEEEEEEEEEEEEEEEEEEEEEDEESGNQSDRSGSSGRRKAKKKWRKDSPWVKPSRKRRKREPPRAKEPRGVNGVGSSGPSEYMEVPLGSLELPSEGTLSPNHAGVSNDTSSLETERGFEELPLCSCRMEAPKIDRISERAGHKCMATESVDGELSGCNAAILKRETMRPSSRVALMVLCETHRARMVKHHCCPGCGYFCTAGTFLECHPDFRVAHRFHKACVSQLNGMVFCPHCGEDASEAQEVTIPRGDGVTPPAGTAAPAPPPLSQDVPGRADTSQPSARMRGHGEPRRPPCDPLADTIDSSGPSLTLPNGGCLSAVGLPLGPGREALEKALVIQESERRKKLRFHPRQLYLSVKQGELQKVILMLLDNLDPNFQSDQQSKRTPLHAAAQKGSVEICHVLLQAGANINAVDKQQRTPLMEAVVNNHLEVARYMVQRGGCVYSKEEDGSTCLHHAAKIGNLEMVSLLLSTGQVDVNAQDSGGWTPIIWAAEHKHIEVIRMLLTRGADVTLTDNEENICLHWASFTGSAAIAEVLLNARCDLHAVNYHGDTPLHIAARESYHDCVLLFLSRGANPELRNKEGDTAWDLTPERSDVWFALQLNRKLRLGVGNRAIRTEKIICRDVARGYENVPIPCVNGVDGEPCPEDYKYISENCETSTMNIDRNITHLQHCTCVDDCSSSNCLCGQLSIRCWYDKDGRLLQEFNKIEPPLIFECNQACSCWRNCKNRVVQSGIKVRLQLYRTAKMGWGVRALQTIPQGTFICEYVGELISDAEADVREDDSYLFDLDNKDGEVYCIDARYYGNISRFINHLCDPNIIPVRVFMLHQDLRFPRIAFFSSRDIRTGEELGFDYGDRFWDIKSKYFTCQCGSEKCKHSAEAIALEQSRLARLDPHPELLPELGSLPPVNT
Procedure, shortened: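 G9a (20 nM) was preincubated 15 min with compound, then reacted 2 h at room temperature with 500 nM biotin-H3K9 peptide and 20 µM SAM. Monomethyl-H3K9 detected by AlphaScreen using anti-H3K9me1 antibody.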
`Clc1nc(-c2n[nH]nc2Cl)n[nH]1` was tested, and the Potency was “inactive”. For `O=C(COc1cccc(Oc2ccccc2)c1)Nc1ncccn1`, the Potency was inconclusive: 50.1 µM [inhibitor, partial curve, poor fit]. `CCOCCCNC(=O)C(c1ccc(Cl)cc1)N1CCN(C(=O)c2ccco2)CC1` (stereo not given) was tested, and the Potency was inconclusive: 79.4 µM [inhibitor, partial curve, poor fit]. For `O=C(CSc1nc2cc(Cl)ccc2s1)c1cc2ccccc2o1`, the Potency was inconclusive: 3.16 µM [inhibitor, full curve]. For `CCc1nnc2c3cnn(-c4ccccc4)c3ncn12`, the Potency was inconclusive: 0.447 µM [inhibitor, full curve, poor fit]. For `CCc1ccc(S(=O)(=O)NCc2ccc3c(c2)CCN3C(=O)c2ccc(C)cc2)cc1`, the Potency was “inactive”. `COc1ccc(-c2cc(C(F)(F)F)nc(N3CCN(c4ccc(F)cc4)CC3)n2)cc1OC` was tested, and the Potency was inconclusive: 89.1 µM [inhibitor, single point]. `Nn1c(SCc2csc(-c3ccccc3)n2)nnc1-c1cccs1` was tested, and the activity, negative = inhibition was inconclusive: -80.2% [inhibitor]. In the case of `Cc1ccc(N2C(N)=C(C#N)C(c3cccnc3)C3=C2CC(C)(C)CC3=O)cc1` (stereo not given), the Potency is reported as inconclusive: 20 µM [inhibitor, single point]. In the case of `CN(CC(=O)Nc1ccc(F)c(F)c1F)C(=O)C1CCCC1`, the Potency is reported as inconclusive: 25.1 µM [inhibitor, single point]. `CCCc1cc(C(N)=O)c(NC(=O)c2ccco2)s1` was tested, and the Potency was inconclusive: 3.55 µM [inhibitor, partial curve, poor fit]. With `CCOC(=O)c1c(C)sc(-c2c(-c3ccccc3)[nH]c3[nH]c(=O)[nH]c(=O)c23)c1O` the Potency was inconclusive: 12.6 µM [inhibitor, partial curve, poor fit]. With `CCOC(=O)Cc1nnc2c(Nc3ccc(C)cc3)nc3nonc3n12` the activity, negative = inhibition was inactive: 37.1% [at 12.7 µM]. In the case of `Cc1ccccc1CN1C[C@@H]2C[C@@H](c3cn(C)nc3-c3ccccc3)N3CCC[C@@]23C1=O`, the Potency is reported as active: 10 µM. In the case of `CC(=O)c1ccc(S(=O)(=O)N2CCCC(N(C)CCc3ccccc3)C2)cc1` (stereo not given), the Potency is reported as inconclusive: 100 µM [inhibitor, single point]. With `CN(C(=O)CC(=O)Nc1ccc2nc3n(c(=O)c2c1)CCCCC3)c1ccccc1F` the Potency was “inactive”. `COc1ccc([N+](=O)[O-])cc1NC(=O)C1CCCO1` (stereo not given) was tested, and the Potency was inconclusive: 20 µM [inhibitor, single point]. `CC(C)c1cc(C(=O)O)n(-c2ccccc2)n1` was tested, and the Potency was inconclusive: 100 µM [inhibitor, single point]. For `O=C(Cn1ncc2c(Cl)cccc21)NCc1cccc(Cl)c1`, the Potency was “inactive”. In the case of `CN(C)S(=O)(=O)c1ccc(C(=O)OCc2ccc([N+](=O)[O-])cc2)cc1`, the Potency is reported as inconclusive: 20 µM [inhibitor, full curve]. For `CON/C=C(\C=Nc1ccc(Cl)cc1)c1ncc(C(F)(F)F)cc1Cl`, the activity, negative = inhibition was inconclusive: -58.7% [inhibitor]. With `CCc1ccc(-n2nc3cc(C)c(N)cc3n2)cc1` the Potency was active: 1.12 µM. In the case of `CCc1nnc(NC(=O)c2ccc(S(=O)(=O)NCC(C)C)cc2)s1`, the Potency is reported as inconclusive: 70.8 µM [inhibitor, partial curve, poor fit]. For `COc1ccc(OC)c(CNC(=O)Nc2cn(CC(C)C)c(=O)c3ccccc23)c1`, the Potency was inconclusive: 8.91 µM [inhibitor, partial curve, poor fit]. In the case of `CCC(=O)N1c2ccc(S(=O)(=O)CCC(=O)NCc3ccccc3OC)cc2CC1C` (stereo not given), the Potency is reported as inconclusive: 35.5 µM [inhibitor, partial curve, poor fit]. With `O=C(CNCCC1=CCCCC1)Nc1ccc(N2CCCCCC2)cc1` the Potency was inconclusive: 11.2 µM [inhibitor, partial curve, poor fit]. `O=C1CCC(=O)N1N1C(=O)C2C3c4ccccc4C(c4ccccc43)C2C1=O` (stereo not given) was tested, and the Potency was inconclusive: 56.2 µM [inhibitor, partial curve, poor fit]. With `COC(=O)c1cccc(-c2ccc(C(c3c(C)[nH][nH]c3=O)c3c(C)[nH][nH]c3=O)o2)c1` the Potency was active: 2.24 µM. `Cc1cc(C)c2sc(N(CCN(C)C)C(=O)c3c(F)cccc3F)nc2c1` was tested, and the Potency was active: 44.7 µM. In the case of `O=C(Cc1cccs1)Nc1nc2c(ccc3ccccc32)s1`, the Potency is reported as inconclusive: 1.41 µM [inhibitor, partial curve, poor fit]. With `CC(=O)c1cccc(NC(=O)c2cnn3ccccc23)c1` the Potency was “inactive”. For `Cc1cccc(NC(=O)Cn2c(=O)n(Cc3ccc4c(c3)OCO4)c(=O)c3oc4ccccc4c32)c1C`, the Potency was “inactive”. In the case of `COc1ccc(Nc2c3c(nc4ccccc24)CCC3)cc1Cl`, the Potency is reported as inconclusive: 25.1 µM [inhibitor, partial curve, poor fit]. `Cc1cccc(N2C(=O)NC3(CCCCC3)C2=O)c1` was tested, and the Potency was “inactive”. `COc1ccc(C(=O)NCC(=O)OCC(=O)Nc2cc(OC)ccc2OC)cc1` was tested, and the Potency was inconclusive: 31.6 µM [inhibitor, single point]. For `Cc1csc(NC(=O)c2cccc(Cn3nc(C)c(Br)c3C)c2)n1`, the activity, negative = inhibition was inconclusive: -61.3% [inhibitor]. `CCOc1ccccc1/C=C\c1nc(O)c([N+](=O)[O-])c(=O)[nH]1` was tested, and the Potency was “inactive”. `CCCNC(=O)CS(=O)Cc1nc(-c2ccc(OC)cc2)oc1C` (stereo not given) was tested, and the Potency was inconclusive: 89.1 µM [inhibitor, single point]. `CCN(Cc1ccncc1)C(=O)c1cc(COc2c(C)cccc2C)on1` was tested, and the Potency was “inactive”. `CCC(C)Sc1nc2c(c(=O)[nH]c(=O)n2C)n1Cc1ccccc1Cl` (stereo not given) was tested, and the Potency was active: 25.1 µM. `N#CC1=C(N)Nc2nc3ccccc3n2C1c1ccc(Cl)cc1` (stereo not given) was tested, and the Potency was active: 0.631 µM. With `O=C(O)C1CCCN1S(=O)(=O)c1ccc2c(c1)CCC2` (stereo not given) the Potency was active: 56.2 µM. For `O=C(Nc1cccc(-c2nc3ccccc3[nH]2)c1)c1ccc(C(=O)Nc2cccc(-c3nc4ccccc4[nH]3)c2)cc1`, the Potency was inconclusive: 39.8 µM [inhibitor, partial curve, poor fit]. `CCCCn1c(CNC(=O)C23CC4CC(CC(C4)C2)C3)nnc1SCC(=O)Nc1ccc(C)cc1` was tested, and the Potency was “inactive”. With `CC1CC(C)CN(CC(=O)N2CCOCC2)C1` (stereo not given) the Potency was active: 8.91 µM. `Cc1cccc(Nc2nnc(SCC(=O)Nc3ccccc3[N+](=O)[O-])s2)c1C` was tested, and the Potency was inconclusive: 39.8 µM [inhibitor, partial curve, poor fit]. In the case of `Nc1ccc2nc(SCC(=O)N3CCN(c4ccccc4)CC3)sc2c1`, the Potency is reported as active: 50.1 µM. For `Cc1ccc(C)c(OCC(=O)NCC(c2ccco2)N2CCCCC2)c1` (stereo not given), the Potency was inconclusive: 89.1 µM [inhibitor, single point]. In the case of `Cc1ccc(NC(=O)C(C)OC(=O)CCN=C2NS(=O)(=O)c3ccccc32)cc1` (stereo not given), the Potency is reported as inconclusive: 50.1 µM [inhibitor, partial curve]. With `O=C(Nc1ccc(S(=O)(=O)N2CCC(c3nc4ccccc4s3)CC2)cc1)c1ccccc1` the Potency was inconclusive: 35.5 µM [inhibitor, single point]. For `COc1ccccc1N/C(N)=N/c1nc(C(F)(F)F)cc(=O)[nH]1`, the Potency was inconclusive: 79.4 µM [inhibitor, partial curve, poor fit]. With `COc1ccccc1NS(=O)(=O)c1cc(NC(=O)c2ccncc2)ccc1N1CCOCC1` the Potency was inconclusive: 28.2 µM [inhibitor, single point]. `COc1ccc(C)cc1NC(=O)CSc1nnc2ccc(-c3cccnc3)nn12` was tested, and the Potency was “inactive”. In the case of `O=c1c2cc(N3CCOCC3)ccc2[nH]c(=S)n1CCCN1CCCC1`, the activity, negative = inhibition is reported as inconclusive: -77.8% [inhibitor]. With `O=C(CCNc1ccc(Br)cc1)c1cccc([N+](=O)[O-])c1` the Potency was active: 3.16 µM. `CCCCCc1c(C)nc(NCc2ccccc2)[nH]c1=O` was tested, and the Potency was inconclusive: 89.1 µM [inhibitor, single point]. With `Cc1ccc(C2CC(=O)Nc3cc4c(cc32)OCCO4)cc1Br` (stereo not given) the Potency was inconclusive: 20 µM [inhibitor, single point]. With `N#Cc1cn(Cc2ccncc2)c(=O)[nH]c1=O` the Potency was “inactive”. With `CCc1nnc(NC(=O)CSc2nnc(-c3ccoc3C)n2-c2cccc(C)c2)s1` the Potency was inconclusive: 56.2 µM [inhibitor, partial curve, poor fit]. `CC(C)C(c1nnnn1CCc1ccccc1)N1CCOCC1` (stereo not given) was tested, and the Potency was inconclusive: 22.4 µM [inhibitor, single point]. In the case of `Nc1c(C(=O)c2ccccc2)oc2ccc(Br)cc12`, the Potency is reported as inconclusive: 79.4 µM [inhibitor, single point]. In the case of `CCOC(=O)CCCNC(=O)COC(=O)c1cccc(C)c1O`, the Potency is reported as inconclusive: 89.1 µM [inhibitor, single point]. For `Cc1cccc(C(=O)N2CC3(C)CC2CC(C)(C)C3)c1` (stereo not given), the Potency was inconclusive: 0.158 µM [inhibitor, full curve, poor fit]. With `CCCCN1C(=S)SC(C)(C)C1/[N+]([O-])=C/c1cccnc1` (stereo not given) the activity, negative = inhibition was inactive: 39.6% [at 0.501 µM]. `COc1ccc(OCc2cc(C(=O)NCC(C)(C)N3CCOCC3)no2)c(Cl)c1` was tested, and the Potency was “inactive”. In the case of `Cc1ccc(NC(=O)NC2=N/C(=C(/C#N)C(=O)N3CCCC3)c3ccccc32)cc1`, the Potency is reported as inconclusive: 31.6 µM [inhibitor, single point]. `O=CN1CCN(S(=O)(=O)c2ccc(Cl)c(C(=O)O)c2)CC1` was tested, and the Potency was inconclusive: 79.4 µM [inhibitor, single point]. `C=CCSc1nc2c(sc3nc(C)cc(C)c32)c(=O)[nH]1` was tested, and the Potency was active: 44.7 µM. For `CCN(CC)CCN1c2ccccc2Sc2ccc3ccccc3c21`, the Potency was active: 50.1 µM. In the case of `CCn1c(=O)c2c(nc3n2CCN3c2ccc(OC)cc2)n(C)c1=O`, the Potency is reported as “inactive”.
